Publication PMC3466257, “PDGF Suppresses the Sulfation of CD44v and Potentiates CD44v-Mediated Binding of Colon Carcinoma Cells to Fibrin under Flow” (PLoS ONE, 2012)

Biological target: T1, soluble fibrin fragment (β15–66)2
T1 construct: fibrin β chain, residues 15-66, as a dimer; also called Fibrin (β15–66)2 fragment
Assay: SPR; BIAcore 3000; CD44 in DMPC proteoliposomes immobilised on an L1 chip, pure liposomes as reference; fibrin fragment (β15–66)2 injected at 0, 50, 120, 180 and 240 nM in HBS at 40 µl/min; global fit to a 1:1 Langmuir model, Kd = koff/kon
Conditions: both partners purified

Kd	koff	kon	Binder
103 nM	0.0561 s⁻¹	546000 M⁻¹ s⁻¹	CD44 immunopurified from untreated LS174T colon carcinoma cells (receptor, carries sulfated chondroitin sulfate and dermatan sulfate glycosaminoglycan chains) [about 200 residues cut from this listing]ATTLMSTSATATETATKRQETWDWFSWLFLPSESKNHLHTTTQMAGTSSNTISAGWEPNEENEDERDRHLSFSGSGIDDDEDFISSTISTTPRAFDHTKQNQDWTQWNPSHSNPEVLLQTTTRMTDVDRNGTTAYEGNWNPEAHPPLIHHEHHEEEETPHSTSTIQATPSSTTEETATQKEQWFGNRWHEGYRQTPKEDSHSTTGTAAASAHTSHPMQGRTTPSPEDSSWTDFFNPISHPMGRGHQAGRRMDMDSSHSITLQPTANPNTGLVEDLDRTGPLSMTTQQSNSQSFSTSHEGLEEDKDHPTTSTLTSSNRNDVTGGRRDPNHSEGSTTLLEGYTSHYPHTKESRTFIPVTSAKTGSFGVTAVTVGDSNSNVNRSLSGDQDTFHPSGGSHTTHGSESDGHSHGSQEGGANTTSGPIRTPQIPEWLIILASLLALALILAVCIAVNSRRRCGQKKKLVINSGNGAVEDRKPSGLNGEASKSQEMVHLVNKESSETPDQFMTADETRNLQNVDMKIGV
6.71 nM	0.0044 s⁻¹	656000 M⁻¹ s⁻¹	CD44 immunopurified from PDGF-treated LS174T colon carcinoma cells (receptor, sulfation reduced by 46.6±6% relative to untreated controls, primarily on chondroitin and dermatan sulfate chains) [about 200 residues cut from this listing]ATTLMSTSATATETATKRQETWDWFSWLFLPSESKNHLHTTTQMAGTSSNTISAGWEPNEENEDERDRHLSFSGSGIDDDEDFISSTISTTPRAFDHTKQNQDWTQWNPSHSNPEVLLQTTTRMTDVDRNGTTAYEGNWNPEAHPPLIHHEHHEEEETPHSTSTIQATPSSTTEETATQKEQWFGNRWHEGYRQTPKEDSHSTTGTAAASAHTSHPMQGRTTPSPEDSSWTDFFNPISHPMGRGHQAGRRMDMDSSHSITLQPTANPNTGLVEDLDRTGPLSMTTQQSNSQSFSTSHEGLEEDKDHPTTSTLTSSNRNDVTGGRRDPNHSEGSTTLLEGYTSHYPHTKESRTFIPVTSAKTGSFGVTAVTVGDSNSNVNRSLSGDQDTFHPSGGSHTTHGSESDGHSHGSQEGGANTTSGPIRTPQIPEWLIILASLLALALILAVCIAVNSRRRCGQKKKLVINSGNGAVEDRKPSGLNGEASKSQEMVHLVNKESSETPDQFMTADETRNLQNVDMKIGV
